Reference: paper PMC7096384, “Antiviral Activity of Chicken Cathelicidin B1 Against Influenza A Virus” (Frontiers in Microbiology, 2020)

Experiments:
H1N1/PR8 = type: cell-based, Influenza A virus
H5N1 = type: cell-based, Influenza A virus
erythrocytes = assay: Hemagglutination inhibition assay (lysis of erythrocytes); type: cell-based; conditions: seen in the hemagglutination inhibition assay
[1] = test system: PR8-induced gene expression of cytokines in HD11 macrophages; type: cell-based, chicken
H3N1 = type: cell-based, Influenza A virus; conditions: dose response (Figure 2), HD11 and MDCK cells; two independent experiments
[2] = test system: IAV strains (H1N1/PR8, H3N1 and H5N1); type: cell-based, Influenza A virus
HD11 cells = assay: Cell viability, WST-1 assay, HD11 cells; type: cell-based, chicken; conditions: 10 μM peptide, 1 h with peptide then further incubation, 24 h in total; three independent experiments

## LLGDFFRKSKEKIGKEFK RIVQRIKDFLRNLVPRTES [LL-37, human cathelicidin, 37 amino acids, used for comparison, reference compound]
H1N1/PR8
  antiviral activity against H1N1: to a lower extent H1N1
H5N1
  antiviral activity against H5N1: not against H5N1

## PIRNWWIRIWEWLNGIRK RLRQRSPFYVRGHLNVTSTPQP [CATH-B1, chicken cathelicidin, 40 amino acids, synthesized by Fmoc-chemistry]
H1N1/PR8; dose response (Figure 2), HD11 and MDCK cells, two independent experiments
  inhibition of viral infectivity, dose-dependent, H1N1: almost complete inhibition
erythrocytes
  lysis of erythrocytes: to some extent induced lysis of erythrocytes
[1]
  effect on virus-induced gene expression with pre- or post-incubation: diminished
  relative mRNA level of IFN-α: unaffected
H3N1
  inhibition of viral infectivity, dose-dependent, H3N1: almost complete inhibition
H5N1
  inhibition of viral infectivity, dose-dependent, H5N1: 85%

## RIIDLLWRVRRPQKPKFVTVWVR [PMAP-23, porcine cathelicidin, used for comparison]
[2]
  inhibition of viral infection: did not significantly inhibit infection

## RVKRFWPLVPVAINTVAAGINLYKAIRRK [CATH-3, chicken cathelicidin, 29 amino acids]
HD11 cells
  cytotoxicity to HD11 cells (WST metabolic activity): cytotoxicity was observed
